According to the supplement of paper PMC12462457:
± gives the standard deviation of the averaged measurements. The list shows a part of the results.

Tested on: OVCAR8
Test: cell count relative to DMSO vehicle (fold change); OVCAR8 is a high-grade serous ovarian cancer line and CX-5461 an RNA polymerase I inhibitor; higher = more surviving senescent cells (less killing)
Conditions: senescence inducer: CX-5461 3 µM 48 h, then 6 d recovery (CX senescent), exposure time 24 h

Row | SMILES | cell count (compound dose 1 µM) | cell count (compound dose 5 µM)
1 | CNc1ccc2oc(C[C@H]3O[C@@]4(CC[C@H]3C)O[C@H]([C@H](C)C(=O)c3ccc[nH]3)[C@H](C)C[C@H]4C)nc2c1C(=O)O [Calcimycin] | 1.31 ± 0.04 | 1.28 ± 0.12
2 | COc1ccc(O)c(C(C)(C)C)c1.COc1ccc(O)cc1C(C)(C)C | 1.03 ± 0.12 | 1.1 ± 0.13
3 | O=C1C=C2C(=CCOC2O)O1 (centres undefined) | 0.709 ± 0.13 | 0.076 ± 0.018
4 | C=C(C)[C@H]1Cc2c(ccc3c2O[C@@H]2COc4cc(OC)c(OC)cc4[C@@H]2C3=O)O1 [Rotenone] | 1.18 ± 0.22 | 1.167 ± 0.0028
5 | COc1ccc([C@@]23Oc4cc(OC)cc(OC)c4[C@]2(O)[C@H](O)[C@H](C(N)=O)[C@H]3c2ccccc2)cc1 [Didesmethylrocaglamide] | 0.534 ± 0.033 | 0.472 ± 0.016
6 | COc1ccc2c(c1)/C(=C/c1cnc[nH]1)C(=O)N2 | 1.26 ± 0.29 | 1.13 ± 0.4
7 | COc1ccc(C[C@H]2NC[C@H](O)[C@H]2OC(C)=O)cc1 [Anisomycin] | 0.936 ± 0.11 | 0.558 ± 0.13
8 | C[C@@H]1CC[C@H]2[C@@H](C)C(=O)O[C@@H]3O[C@@]4(C)CC[C@@H]1[C@]32OO4 [Artemisinin] | 1.02 ± 0.015 | 1.18 ± 0.11
9 | Cc1ccc(OCCn2c(C)c(C=C3C(=O)NC(=S)NC3=O)c3ccccc32)c(C)c1 | 1.13 ± 0.15 | 0.905 ± 0.061
10 | CC(=O)N1N=C(c2ccc(N)cc2)c2cc3c(cc2C[C@H]1C)OCO3 [Talampanel] | 1.21 ± 0.33 | 1.16 ± 0.28
11 | O=C1CCC[C@@H]2[C@H]3CCCN4CCC[C@@H](CN12)[C@@H]34 [Matrine] | 1.08 ± 0.14 | 1.06 ± 0.16
12 | CC(=O)O[C@H]1[C@H]2O[C@]23[C@@H]2CC[C@@H]4C[C@@H](O)CC[C@]4(C)[C@H]2CC[C@]3(C)[C@H]1c1ccc(=O)oc1 [Cinobufagin] | 0.034 ± 0.0014 | 0.0175 ± 0.0092
13 | CN[C@@H]1C[C@H]2O[C@@](C)([C@@H]1OC)n1c3ccccc3c3c4c(c5c6ccccc6n2c5c31)C(=O)NC4 [Staurosporine] | 0.0115 ± 0.0092 | 0.0045 ± 0.00071
14 | COCC1(CO)C(=O)C2CCN1CC2 (centres undefined) [Eprenetapopt] | 1.09 ± 0.11 | 0.884 ± 0.059
15 | C=C[C@H]1CN2CC[C@H]1C[C@@H]2[C@@H](O)c1ccnc2ccccc12 [Cinchonine] | 1.08 ± 0.27 | 1.1 ± 0.28
16 | C/C(=C\c1csc(C)n1)[C@@H]1C[C@@H]2O[C@]2(C)CCC[C@H](C)[C@H](O)[C@@H](C)C(=O)C(C)(C)[C@@H](O)CC(=O)O1 [Epothilone B] | 1.07 ± 0.018 | 1 ± 0.15

Row | SMILES | cell count (compound dose 1 µM) | cell count (compound dose 5 µM)
17 | COc1ccccc1-n1c(/C=C/c2ccc(O)c(O)c2)nc2ccccc2c1=O | 1.15 ± 0.21 | 1.13 ± 0.042
18 | C=C1[C@H](OC(=O)c2ccccc2)C[C@H]2[C@@H](/C=C(\C)C(=O)[C@@]3(OC(C)=O)C[C@H](C)[C@H](OC(=O)c4ccccc4)[C@@H]3[C@H]1OC(C)=O)C2(C)C [Euphorbia Factor L2] | 1.16 ± 0.22 | 1.07 ± 0.15
19 | CC(=O)OC(C)(C)/C=C/C(=O)[C@](C)(O)[C@H]1[C@H](O)C[C@@]2(C)[C@@H]3CC=C4[C@H](C[C@H](O)C(=O)C4(C)C)[C@]3(C)C(=O)C[C@]12C [Cucurbitacin B] | 0.015 ± 0.0042 | 0.015 ± 0.0014
20 | CC(C)[C@@H]1NC(=O)[C@H](C)OC(=O)[C@@H](C(C)C)NC(=O)[C@@H](C(C)C)OC(=O)[C@H](C(C)C)NC(=O)[C@H](C)OC(=O)[C@@H](C(C)C)NC(=O)[C@@H](C(C)C)OC(=O)[C@H](C(C)C)NC(=O)[C@H](C)OC(=O)[C@@H](C(C)C)NC(=O)[C@@H](C(C)C)OC1=O [Valinomycin] | 1.01 ± 0.027 | 1.06 ± 0.14
21 | O=C(Nc1ccncc1)C(=O)c1cn(Cc2ccc(Cl)cc2)c2ccccc12 [Indibulin] | 1.065 ± 0.0035 | 1.09 ± 0.018
22 | O=c1ccc2ccc3occc3c2o1 [Angelicin] | 1.07 ± 0.14 | 1.03 ± 0.1
23 | C/C=C(/C)C(=O)O[C@H]1[C@@H]2[C@H](C)C(=O)O[C@@H]2C[C@@H](C)[C@@H]2C=CC(=O)[C@]21C [Brevilin A] | 1.052 ± 0.0078 | 1.11 ± 0.066
24 | N#Cc1nn(-c2c(Cl)cc(C(F)(F)F)cc2Cl)c(N)c1[S+]([O-])C(F)(F)F (centres undefined) [Fipronil] | 1.04 ± 0.043 | 1.01 ± 0.12
25 | CC[C@@]1(O)C(=O)OCc2c1cc1n(c2=O)Cc2cc3ccccc3nc2-1 [Camptothecin] | 0.737 ± 0.057 | 1.01 ± 0.16
26 | CC(C)=CCC[C@]1(C)C=Cc2c(O)c3c(c(CC=C(C)C)c2O1)O[C@]12C(=C[C@@H]4C[C@H]1C(C)(C)O[C@@]2(C/C=C(/C)C(=O)O)C4=O)C3=O [Gambogic Acid] | 0.998 ± 0.14 | 0.008 ± 0.0014
27 | COc1cc(-n2c(=S)[nH]c3ccccc3c2=O)c(Cl)cc1Cl [Mdivi-1] | 0.91 ± 0.076 | 1.13 ± 0.03
28 | CC1=C(O)C(=O)C=C2C1=CC=C1[C@@]2(C)CC[C@@]2(C)[C@@H]3C[C@](C)(C(=O)O)CC[C@]3(C)CC[C@]12C [Tripterin] | 0.267 ± 0.017 | 0.0165 ± 0.005
29 | O=Cc1cn(Cc2ccc(Cl)cc2)c2ccccc12 [Oncrasin-1] | 1.06 ± 0.22 | 0.978 ± 0.3
30 | CC(C)=CCC[C@H](C(=O)O)[C@H]1CC[C@]2(C)C3=C(CC[C@@]12C)[C@@]1(C)CCC(=O)C(C)(C)[C@H]1CC3 [β-Elemonic acid] | 1.08 ± 0.2 | 0.928 ± 0.09
31 | COc1cc([C@@H]2c3cc4c(cc3[C@H](O)[C@H]3COC(=O)[C@@H]23)OCO4)cc(OC)c1OC [Picropodophyllin] | 1.01 ± 0.044 | 1.116 ± 0.0042
32 | C1=C2CCCN[C@H]2[C@@H]2C[C@H]1[C@H]1CCCCN1C2 [Aloperine] | 1.11 ± 0.081 | 1.17 ± 0.13
